The list shows a part of the results.
Key:
Experiment in all cases: glycan array binding signal (z-score within array); higher = stronger binding
Settings in all cases: glycan notation: IUPAC condensed, linker removed
Gal(b1-4)GlcNAc = molecular target: Gal(b1-4)GlcNAc
Procedure, shortened: (§1)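 Glycan array binding is given as a within-array Z-score, which can be read as non-binding when negative. The arrays, 3228 of them, came from the Consortium for Functional Glycomics database and were retained only where the protein sequence was available. Z-scores were averaged across arrays of the same protein sequence at different concentrations or buffers and across linkers.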

[1] = molecular target: Gal(b1-4)GlcNAc(a1-6)Gal(b1-4)GlcNAc
Procedure, shortened: as §1

Gal(b1-4)GlcNAc(b1-2)Man = molecular target: Gal(b1-4)GlcNAc(b1-2)Man
Procedure, shortened: as §1

[2] = molecular target: Gal(b1-4)GlcNAc(b1-2)Man(a1-3)Man(b1-4)GlcNAc(b1-4)GlcNAc
Procedure, shortened: as §1

[3] = molecular target: Gal(b1-4)GlcNAc(b1-2)Man(a1-3)[Gal(b1-4)GlcNAc(b1-2)Man(a1-6)]Man(b1-4)GlcNAc(b1-4)GlcNAc
Procedure, shortened: as §1

[4] = molecular target: Gal(b1-4)GlcNAc(b1-2)Man(a1-3)[Gal(b1-4)GlcNAc(b1-2)Man(a1-6)]Man(b1-4)GlcNAc(b1-4)[Fuc(a1-6)]GlcNAc
Procedure, shortened: as §1

[5] = molecular target: Gal(b1-4)GlcNAc(b1-2)Man(a1-3)[Gal(b1-4)GlcNAc(b1-2)Man(a1-6)][Gal(b1-4)GlcNAc(b1-4)]Man(b1-4)GlcNAc(b1-4)[Fuc(a1-6)]GlcNAc
Procedure, shortened: as §1

[6] = molecular target: Gal(b1-4)GlcNAc(b1-2)Man(a1-3)[Gal(b1-4)GlcNAc(b1-2)Man(a1-6)][GlcNAc(b1-4)]Man(b1-4)GlcNAc(b1-4)[Fuc(a1-6)]GlcNAc
Procedure, shortened: as §1

[7] = molecular target: Gal(b1-4)GlcNAc(b1-2)Man(a1-3)[GlcNAc(b1-2)Man(a1-6)]Man(b1-4)GlcNAc(b1-4)GlcNAc
Procedure, shortened: as §1

[8] = molecular target: Gal(b1-4)GlcNAc(b1-2)Man(a1-3)[GlcNAc(b1-4)][Gal(b1-4)GlcNAc(b1-2)Man(a1-6)]Man(b1-4)GlcNAc(b1-4)GlcNAc
Procedure, shortened: as §1

[9] = molecular target: Gal(b1-4)GlcNAc(b1-2)Man(a1-3)[Man(a1-6)]Man(b1-4)GlcNAc(b1-4)GlcNAc
Procedure, shortened: as §1

[10] = molecular target: Gal(b1-4)GlcNAc(b1-2)Man(a1-6)Man(b1-4)GlcNAc(b1-4)GlcNAc
Procedure, shortened: as §1

[11] = molecular target: Gal(b1-4)GlcNAc(b1-2)Man(a1-6)[GlcNAc(b1-2)Man(a1-3)]Man(b1-4)GlcNAc(b1-4)GlcNAc
Procedure, shortened: as §1

[12] = molecular target: Gal(b1-4)GlcNAc(b1-2)Man(a1-6)[Man(a1-3)]Man(b1-4)GlcNAc(b1-4)GlcNAc
Procedure, shortened: as §1

[13] = molecular target: Gal(b1-4)GlcNAc(b1-2)[Gal(b1-4)GlcNAc(b1-4)]Man(a1-3)[Gal(b1-4)GlcNAc(b1-2)Man(a1-6)]Man(b1-4)GlcNAc(b1-4)GlcNAc
Procedure, shortened: as §1

[14] = molecular target: Gal(b1-4)GlcNAc(b1-2)[Gal(b1-4)GlcNAc(b1-4)]Man(a1-3)[Gal(b1-4)GlcNAc(b1-2)[Gal(b1-4)GlcNAc(b1-6)]Man(a1-6)]Man(b1-4)GlcNAc(b1-4)GlcNAc
Procedure, shortened: as §1

[15] = molecular target: Gal(b1-4)GlcNAc(b1-2)[Gal(b1-4)GlcNAc(b1-4)]Man(a1-3)[GlcNAc(b1-4)][Gal(b1-4)GlcNAc(b1-2)Man(a1-6)]Man(b1-4)GlcNAc(b1-4)GlcNAc
Procedure, shortened: as §1

[16] = molecular target: Gal(b1-4)GlcNAc(b1-2)[Gal(b1-4)GlcNAc(b1-4)]Man(a1-3)[GlcNAc(b1-4)][Gal(b1-4)GlcNAc(b1-2)[Gal(b1-4)GlcNAc(b1-6)]Man(a1-6)]Man(b1-4)GlcNAc(b1-4)GlcNAc
Procedure, shortened: as §1

[17] = molecular target: Gal(b1-4)GlcNAc(b1-2)[Gal(b1-4)GlcNAc(b1-6)]Man(a1-6)[Gal(b1-4)GlcNAc(b1-2)Man(a1-3)]Man(b1-4)GlcNAc(b1-4)GlcNAc
Procedure, shortened: as §1

[18] = molecular target: Gal(b1-4)GlcNAc(b1-2)[Gal(b1-4)GlcNAc(b1-6)]Man(a1-6)[Gal(b1-4)GlcNAc(b1-2)Man(a1-3)]Man(b1-4)GlcNAc(b1-4)[Fuc(a1-6)]GlcNAc
Procedure, shortened: as §1

[19] = molecular target: Gal(b1-4)GlcNAc(b1-2)[Gal(b1-4)GlcNAc(b1-6)]Man(a1-6)[GlcNAc(b1-4)][Gal(b1-4)GlcNAc(b1-2)Man(a1-3)]Man(b1-4)GlcNAc(b1-4)GlcNAc
Procedure, shortened: as §1

[20] = molecular target: Gal(b1-4)GlcNAc(b1-2)[Gal(b1-4)GlcNAc(b1-6)]Man(a1-6)[GlcNAc(b1-4)][Gal(b1-4)GlcNAc(b1-2)[Gal(b1-4)GlcNAc(b1-4)]Man(a1-3)]Man(b1-4)GlcNAc(b1-4)[Fuc(a1-6)]GlcNAc
Procedure, shortened: as §1

[21] = molecular target: Gal(b1-4)GlcNAc(b1-3)Gal(b1-3)GalNAc
Procedure, shortened: as §1

B1: SJA (Sophora japonica) (protein)
chain: FLGLFNSGGYSSSYQIVAVEFDTYINEWDPKTRHIGIDINSINSTKTVTWGWENGEVAIVLISYKAATETLTVSLTYPSSQTSYILSAAVDLKSILPEWVRIGF
glycan array binding signal (z-score) (Gal(b1-4)GlcNAc): -0.222
glycan array binding signal (z-score) [1]: -0.173
glycan array binding signal (z-score) (Gal(b1-4)GlcNAc(b1-2)Man): 0.008
glycan array binding signal (z-score) [2]: -0.157
glycan array binding signal (z-score) [3]: -0.156
glycan array binding signal (z-score) [4]: -0.363
glycan array binding signal (z-score) [5]: -0.343
glycan array binding signal (z-score) [6]: -0.337
glycan array binding signal (z-score) [7]: -0.116
glycan array binding signal (z-score) [8]: -0.093
glycan array binding signal (z-score) [9]: -0.201
glycan array binding signal (z-score) [10]: -0.334
glycan array binding signal (z-score) [11]: -0.21
glycan array binding signal (z-score) [12]: -0.043
glycan array binding signal (z-score) [13]: -0.12
glycan array binding signal (z-score) [14]: -0.162
glycan array binding signal (z-score) [15]: -0.313
glycan array binding signal (z-score) [16]: -0.099
glycan array binding signal (z-score) [17]: -0.381
glycan array binding signal (z-score) [18]: -0.172
glycan array binding signal (z-score) [19]: -0.161
glycan array binding signal (z-score) [20]: -0.039
glycan array binding signal (z-score) [21]: -0.293

Source: the supplement of paper PMC8728848
